PubChem BioAssay AID1745853 (National Center for Advancing Translational Sciences (NCATS), 2022)
Several values for one entry are separate records, joined by “and”; a condition that tells them apart may be missing. Identical values can stand only once. This is one part of the list. Further columns of the screen follow, without active or inactive calls. Square brackets hold non-standard residues; d marks the D form. Peptide text beside a SMILES is read from it. 2Abz = Nc1ccccc1C(=O)O

Assays:
Test in all cases: Primary Screen for Target Class Profiling of Small Molecule Inhibitors of Methyltransferases
[1] = biological target: Glycine N-methyltransferase (Homo sapiens) (UniProt Q14749); conditions: purified enzyme, MTase-Glo SAH luminescence; measured here: GNMT inhibition; at 40 µM; stronger effect = lower value
Outline: (§1)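 Each enzyme was assayed with SAM and its substrate. SAH formation detected by MTase-Glo luminescence; single-point 40 uM screen[…].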

[2] = biological target: Guanidinoacetate N-methyltransferase (Homo sapiens) (UniProt Q14353); conditions: purified enzyme, MTase-Glo SAH luminescence; measured here: GAMT inhibition; at 40 µM; stronger effect = lower value
Outline: as §1

[3] = biological target: Histamine N-methyltransferase (Homo sapiens) (UniProt P50135); conditions: purified enzyme, MTase-Glo SAH luminescence; measured here: HNMT inhibition; at 40 µM; stronger effect = lower value
Outline: as §1

[4] = biological target: Nicotinamide N-methyltransferase (Homo sapiens) (UniProt P40261); conditions: purified enzyme, MTase-Glo SAH luminescence; measured here: NNMT inhibition; at 40 µM; stronger effect = lower value
Outline: as §1

[5] = biological target: Phenylethanolamine N-methyltransferase (Homo sapiens) (UniProt P11086); conditions: purified enzyme, MTase-Glo SAH luminescence; measured here: PNMT inhibition; at 40 µM; stronger effect = lower value
Outline: as §1
% is set by controls: 0 for no effect and ±100 for the full control effect.

Structure (SMILES)	activity change, negative = inhibition [1]	activity change, negative = inhibition [2]	activity change, negative = inhibition [3]	activity change, negative = inhibition [4]	activity change, negative = inhibition [5]
COc1ccccc1CN1C(=O)c2cc3occc3n2CC1(C)C(=O)NC1CCCC(C)C1C (stereo not drawn)	-14.9%	-6.85%	-4.45%	-15.7%	-10.6%
CCC(C)NC(=O)c1ccc2c(=O)n(C)c3nn(Cc4cccc(F)c4)c(=O)n3c2c1 (stereo not drawn)	7.13%	2.17%	8.81%	4.58%	8.11%
Fc1ccc(-c2cccc(CN3CCOCC3)c2)c(Cl)c1	-4.02%	-1.11%	-2%	-13.1%	-6.19%
CC1(C(=O)NC2CCCCCC2)Cn2c(cc3ccccc32)C(=O)N1CC1CCCO1 (stereo not drawn)	3.79%	4.03%	-0.684%	3.13%	-2.91%
Cc1ccc(C)c(NS(=O)(=O)c2ccc3[nH]c(=O)[nH]c3c2)c1	-2.32%	4.41%	8.1%	14.6%	-2.64%
COc1cccc(-c2nc3cc4c(cc3cc2CN2CCOCC2)OCO4)c1OC	-2.24%	-2.16%	-0.752%	-13.2%	-26.2%
CC1(C(=O)NC2CCCC2)Cn2c(ccc2-c2ccco2)C(=O)N1Cc1ccc2c(c1)OCO2 (stereo not drawn)	-9.24%	0%	2.36%	-5.82%	-5.48%
O=C(NCCCN1CCC2(CC1)OCc1ccccc12)[C@H]1CCCN1Cc1ccccc1	-2.59%	3.05%	0.705%	-18.5%	-2.83%
Cc1cc(C)cc(NS(=O)(=O)c2cc3c(cc2C)n(C)c(=O)n3C)c1	11.9%	0%	4.33%	-2.06%	2.97%
CC(C)OCCCn1c(=O)c2cc(Cl)ccc2n2c(SCc3ccc(F)cc3)nnc12	-0.833%	4.08%	10.9%	-7.84%	5.14%
COc1cc(=O)n2c(c1C(=O)NCc1ccccc1Cl)CCCC2	-4.84%	-5.44%	-2.22%	-9.77%	-7.96%
COc1ccccc1N1CCN(CCN(C(=O)C2CCCCC2)c2ccccn2)CC1	2.15% and 8.37%	12.7% and 7.67%	6.22% and 8.2%	-2.01% and -4.2%	5.03% and 3.85%
Cc1ccc(C)c(Cn2nc3n(Cc4ccccc4)c(=O)c4ccccc4n3c2=O)c1	5.45%	0%	10.1%	6.58%	5.45%
Cn1cc(CN2CCCCCNC(=O)[C@@H]3CCC[C@@H]32)c2ccccc21	-11.4%	-9.92%	-12.5%	-23.3%	-9.93%
COc1ncccc1-c1cc2c(ccn2CC2CCN([S+](C)(=O)[O-])CC2)c(N2CCOCC2)n1	-22.9%	-11.6%	-54.8%	-16.8%	-45.8%
Cc1cccc(CN2C(=O)c3ccc(-c4ccco4)n3CC2(C)C(=O)NC2CCCCC2)c1 (stereo not drawn)	-2.62%	4.72%	-1.78%	-8.1%	-1.15%
CS(=O)(=O)c1ccc([C@@H](C[C@H]2CCC(=O)C2)C(=O)Nc2cnccn2)cc1Cl		-1.41%		-9.79%	2.7%
CCC(C)C1NC(=O)C2CCCN2C(=O)C(C(C)C)NC(=O)c2ccccc2NC(=O)C(Cc2ccc(O)cc2)NC(=O)C(C)NC(=O)C(C(C)O)NC1=O (stereo not drawn) (cyclo([2Abz]VPITAY); configuration not given here)	0%	5.9%	11.7%	-4.82%	1.24%
CC1CCCCN1CCNC(=O)CCc1nnc2n(Cc3ccc(F)cc3)c(=O)c3ccccc3n12 (stereo not drawn)	-7.12%	4.82%	-51.9%	-5.83%	0.406%

Structure (SMILES)	activity change, negative = inhibition [1]	activity change, negative = inhibition [2]	activity change, negative = inhibition [3]	activity change, negative = inhibition [4]	activity change, negative = inhibition [5]
CCC(C)NC(=O)c1ccc2c(=O)n(C)c3nn(Cc4c(F)cccc4Cl)c(=O)n3c2c1 (stereo not drawn)	2.33%	3.88%	4.4%	4.82%	0.796%
O=C(CCn1ccc2cc(S(=O)(=O)N3CCCCC3)ccc21)NCCc1ccco1	-4.57%	0%	7.27%	-12.7%	-4.96%
Cc1cnc(CC2CCN(C(=O)Cc3cccc(F)c3)CC2)n1CC1CC1	-2.4%	-0.088%	-29.2%	-39.8%	-1.7%
CCOCCn1nc(C)cc1C(=O)N[C@H]1[C@H]2CCO[C@H]2[C@@H]1N(C)C	-6.03%	-3.52%	0.515%	-5.68%	-0.21%
C[C@@H](NC(=O)c1ncnc(N)c1Cl)c1ncc(C(=O)Nc2cc(C(F)(F)F)c(Cl)cn2)s1	-4.83%	1.12%	-6.77%	-20%	-7.6%
CCOC(=O)c1ccc2c(c1)C1C=CCC1C(c1ccc(Br)cc1)N2 (stereo not drawn)	-16.7%	-7.2%	-14.9%	-19.6%	-19.4%
COc1ccccc1NC(=O)CSc1nnc2n(C)c(=O)c3ccc(C(=O)NC4CCCC4)cc3n12	0.278%	0.494%	5.08%	5.42%	3.63%
CN1C(=O)c2cc(C(=O)NC3CCCCCC3)nn2CC1(C)C(=O)NC1CCCCC1 (stereo not drawn)	0.968%	0%	2.51%	4.32%	2.99%
COc1ccccc1N1CCN(S(=O)(=O)c2cc3c(cc2Cl)n(C)c(=O)n3C)CC1	-0.991%	0%	1.7%	-3.41%	1.12%
C[n+]1cc2c3c(ccc2c2ccc4cc5c(cc4c21)OCO5)OCO3	-64.4%	-0.906%	-7.72%	-13.2%	-6.57%
COc1ccc(CN2C(=O)c3cc4oc(C)cc4n3CC2(C(=O)NC2CCCCCC2)c2ccccc2)cc1 (stereo not drawn)	-2.94%	-1.65%	-6.94%	-10.7%	-27.7%
Cn1c(=O)c2ccc(C(=O)NC3CCCC3)cc2n2c(SCc3ccccc3)nnc12	-3.64%	4.93%	-1.3%	1.13%	2.26%
O=c1c2nc(-c3ccsc3)ccc2ncn1-c1ccccc1	-5.75%	0.178%	-0.53%	-5%	-2%
CCC1CN(S(=O)(=O)c2ccc3[nH]c4c(c3c2)CCCC4)c2ccccc2S1 (stereo not drawn)	1.06%	6.91%	-5.33%	-9.83%	-0.17%
COc1ccc(OC)c(CCN2C(=O)c3cc4occc4n3CC2(C)C(=O)NC2CCC(C)CC2)c1 (stereo not drawn)	-2.27%	0.015%	3.92%	-3.32%	0.611%
Cc1cc2c(cc3n2CC(C)(C(=O)NC2CCCCCC2)N(CCCc2ccccc2)C3=O)o1 (stereo not drawn)	4.39%	2.08%	9.72%	4.1%	4.61%
Clc1cc(NCc2ccccc2Cl)n2nccc2n1	-19.9%	-5%	-7.49%	-19.8%	-1.34%
CN(c1ccc(NC(=O)Nc2ccccc2)cc1)S(=O)(=O)c1cnn(-c2ccc(F)cc2)c1	3.87%	-2.63%	-2.46%	-18.4%	-3.78%
Cc1cc(C)c(Nc2ccnc(Nc3ccc(C#N)cc3)n2)c(C)c1	-6.43%	-17.8%	-5.44%	-37.5%	-15.2%
